Laboratory results from a collection of fitness landscapes (doi:10.1126/science.1257360).
The other results are listed elsewhere or left out.

B1: PhoQ; a variant is named by its letters at X, in order, P23837 (parent)
chain: MKKLLRLFFPLSLRVRFLLATAAVVLVLSLAYGMVALIGYSVSFDKTTFRLLRGESNLFYTLAKWENNKLHVELPENIDKQSPTMTLIYDENGQLLWAQRDVPWLMKMIQPDWLKSNGFHEIEADVNDTSLLLSGDHSIQQQLQEVREDDDDAEMTHSVAVNVYPATSRMPKLTIVVVDTIPVELKSSYMVWSWFIYVLSANLLLVIPLLWVAAWWSLRPIEALAKEVRELEEHNRELLNPATTRELTSLVRNLNRLLKSERERYDKYRTTLTDLTHSLKTPLXXLQXXLRSLRSEKMSVSDAEPVMLEQISRISQQIGYYLHRASMRGGTLLSRELHPVAPLLDNLTSALNKVYQRKGVNISLDISPEISFVGEQNDFVEVMGNVLDNACKYCLEFVEISARQTDEHLYIVVEDDGPGIPLSKREVIFDRGQRVDTLRPGQGVGLAVAREITEQYEGKIVAGESMLGGARMEVIFGRQHSAPKDE

Variants of: B1
Test: enrichment ratio after two sorts for PhoP signalling (ratio (wild type AVST 3.29)); higher = more functional
Conditions: with PhoP (E. coli)

Variant	enrichment ratio
FNRQ	≤ 0.25
VYKC	≤ 0.25
MCCW	≤ 0.25
QLVL	≤ 0.25
MAGD	≤ 0.25
LPDG	≤ 0.25
REWP	≤ 0.25
RWDY	≤ 0.25
SHLI	10.2
HWIE	≤ 0.25
HNGE	≤ 0.25
HPQG	≤ 0.25
YENR	≤ 0.25
IANH	≤ 0.25
LTEQ	≤ 0.25
NCPC	≤ 0.25
WPDP	≤ 0.25
GWPH	≤ 0.25
MMPK	≤ 0.25
TVFD	≤ 0.25
HCAL	≤ 0.25
GIDP	≤ 0.25
ATFI	≤ 0.25
DIMW	≤ 0.25

Variant	enrichment ratio
AEII	16.4
VIDV	≤ 0.25
PNIG	≤ 0.25
HWGR	≤ 0.25
YYSK	≤ 0.25
FNIC	≤ 0.25
IERP	≤ 0.25
QQSK	≤ 0.25
NSQP	≤ 0.25
YWGK	≤ 0.25
STHR	≤ 0.25
YTLF	6.76
VVCI	≤ 0.25
LQPA	≤ 0.25
RGHC	≤ 0.25
SWAI	≤ 0.25
KTHG	≤ 0.25
NRRS	≤ 0.25
LFIP	≤ 0.25
PELE	≤ 0.25
CFGL	≤ 0.25
IPRI	≤ 0.25
QCHF	≤ 0.25
WCRF	≤ 0.25

Variant	enrichment ratio
LMQH	≤ 0.25
GNHN	≤ 0.25
HKHG	≤ 0.25
SMWD	≤ 0.25
GRYI	≤ 0.25
KRNT	≤ 0.25
WDRH	≤ 0.25
AQCF	10.6
YKAE	≤ 0.25
QRYE	≤ 0.25
VWAC	≤ 0.25
KPHM	≤ 0.25
YHDN	≤ 0.25
CFLG	≤ 0.25
RLKV	0.555
RNAC	≤ 0.25
ADRT	≤ 0.25
TYTL	15.2
ELVI	≤ 0.25
KFRF	≤ 0.25
HCCG	≤ 0.25
KDPG	≤ 0.25
KHFD	≤ 0.25
DQFT	≤ 0.25

Variant	enrichment ratio
PHAQ	≤ 0.25
STGP	≤ 0.25
SGAG	8.48
KQYW	≤ 0.25
DRDD	≤ 0.25
HSYM	≤ 0.25
RLWS	≤ 0.25
DELV	≤ 0.25
FVRF	≤ 0.25
VVLW	≤ 0.25
VMAH	≤ 0.25
AHHP	≤ 0.25
YDPT	≤ 0.25
WEGY	≤ 0.25
MAAM	2.01
IKIM	≤ 0.25
PGGT	≤ 0.25
MLYI	8.89
LFEN	≤ 0.25
YMNH	≤ 0.25
IQQA	≤ 0.25
WFQY	≤ 0.25
NSMP	≤ 0.25
ESNH	≤ 0.25

Variant	enrichment ratio
QCNS	≤ 0.25
MRIL	≤ 0.25
GRWW	≤ 0.25
RYTA	≤ 0.25
KSNR	≤ 0.25
NTYV	≤ 0.25
VWPS	≤ 0.25
FATT	≤ 0.25
NPKL	≤ 0.25
KIAM	≤ 0.25
RDEH	≤ 0.25
RNDH	≤ 0.25
MMTF	≤ 0.25
LQQD	≤ 0.25
VGES	≤ 0.25
IVES	≤ 0.25
FHQH	≤ 0.25
DEDH	≤ 0.25
RMSD	≤ 0.25
KAKR	≤ 0.25
YQRA	≤ 0.25
GELG	22.4
NWAF	≤ 0.25
QAFP	≤ 0.25

Variant	enrichment ratio
PALF	≤ 0.25
IHPE	≤ 0.25
LVAG	≤ 0.25
PWAW	≤ 0.25
FPPS	≤ 0.25
PYMW	≤ 0.25
KSTC	≤ 0.25
QKNC	≤ 0.25
QFAG	≤ 0.25
HLKD	≤ 0.25
WKEG	≤ 0.25
RWHC	≤ 0.25
DRRP	≤ 0.25
EHAC	≤ 0.25
GGRN	≤ 0.25
SFRQ	≤ 0.25
RKQT	≤ 0.25
FCSI	≤ 0.25
RKVQ	≤ 0.25
RMLD	≤ 0.25
RIIW	≤ 0.25
GNDP	≤ 0.25
HQMF	≤ 0.25
FTRV	≤ 0.25

Variant	enrichment ratio
HWIV	≤ 0.25
YQHK	≤ 0.25
VGDN	≤ 0.25
NRIW	≤ 0.25
FNSM	≤ 0.25
NCVI	≤ 0.25
RAGQ	≤ 0.25
SMFF	≤ 0.25
HDLH	≤ 0.25
VLKT	≤ 0.25
KDIH	≤ 0.25
SQHD	≤ 0.25
LFCL	≤ 0.25
ICCH	≤ 0.25
IGVC	≤ 0.25
DRYM	≤ 0.25
YQTM	≤ 0.25
RETR	≤ 0.25
AFPC	≤ 0.25
THDL	3.68
GYIL	≤ 0.25
EYHA	≤ 0.25
DFTI	≤ 0.25
FRTT	≤ 0.25

Variant	enrichment ratio
PGDR	≤ 0.25
GEHM	≤ 0.25
IINK	≤ 0.25
SSKS	≤ 0.25
INQH	≤ 0.25
LADY	≤ 0.25
YMPE	≤ 0.25
MFYH	≤ 0.25
YQYI	≤ 0.25
YHRF	≤ 0.25
DVMS	≤ 0.25
HVML	≤ 0.25
LWRA	≤ 0.25
NLFP	≤ 0.25
FNCQ	≤ 0.25
DPMI	≤ 0.25
FDPS	≤ 0.25
PHRR	≤ 0.25
VPDK	≤ 0.25
YKMS	≤ 0.25
PFTA	≤ 0.25
GDNL	≤ 0.25
ADPE	≤ 0.25
PVLM	≤ 0.25

Variant	enrichment ratio
MTVH	0.706
DDML	≤ 0.25
YWAG	≤ 0.25
NYLT	≤ 0.25
KWMY	≤ 0.25
YQTN	≤ 0.25
NKAF	≤ 0.25
PMCA	≤ 0.25
EVMN	≤ 0.25
TDSY	0.762
IKET	≤ 0.25
SHAC	≤ 0.25
PYWQ	≤ 0.25
FKGV	≤ 0.25
PSKF	≤ 0.25
TGIF	≤ 0.25
LWHD	≤ 0.25
TKCV	30.6
YISK	0.435
LWVC	≤ 0.25
YADN	≤ 0.25
EIYC	≤ 0.25
GFIN	≤ 0.25
DKWF	≤ 0.25

Variant	enrichment ratio
SCWP	≤ 0.25
PMIF	≤ 0.25
VKFI	≤ 0.25
GQPY	≤ 0.25
AVYP	≤ 0.25
DECI	≤ 0.25
NCIV	≤ 0.25
AHHQ	≤ 0.25
ADGV	≤ 0.25
CLLP	≤ 0.25
TTRR	≤ 0.25
MLAC	≤ 0.25
NGWL	≤ 0.25
SDQV	≤ 0.25
GCLY	8.42
RGSM	≤ 0.25
HWNT	≤ 0.25
WSSL	≤ 0.25
VHHD	≤ 0.25
VSSS	≤ 0.25
NCNW	≤ 0.25
TKVH	12.3
HECH	12.7
TWSM	≤ 0.25

Variant	enrichment ratio
RWGV	≤ 0.25
DDSG	≤ 0.25
MFEI	≤ 0.25
DGPF	≤ 0.25
HAVL	≤ 0.25
FWLS	0.265
YSDK	≤ 0.25
YFCM	≤ 0.25
WCWA	≤ 0.25
LYIM	≤ 0.25
SSEP	≤ 0.25
HAKY	≤ 0.25
DCTG	≤ 0.25
TIHG	7.05
MSNM	≤ 0.25
MVQL	≤ 0.25
HPPH	≤ 0.25
YFPS	≤ 0.25
HVFT	≤ 0.25
LRDF	≤ 0.25
LRKV	≤ 0.25
SDVH	5.46
AIDP	≤ 0.25
FQCK	≤ 0.25

Variant	enrichment ratio
QKRG	≤ 0.25
YGGT	≤ 0.25
ESME	≤ 0.25
KSVP	≤ 0.25
PGHQ	≤ 0.25
DVIP	≤ 0.25
ASGY	3.18
DHCQ	≤ 0.25
KHTI	≤ 0.25
HPPE	≤ 0.25
PCCV	≤ 0.25
FQED	≤ 0.25
RMPS	≤ 0.25
HNRI	≤ 0.25
LHYA	≤ 0.25
LPCH	≤ 0.25
MEYY	18.8
VDYG	≤ 0.25
FWGT	≤ 0.25
FSLG	8.53
VNLV	8.16
TQNR	≤ 0.25
TNQY	9.69
RQNN	≤ 0.25

Variant	enrichment ratio
RNCR	≤ 0.25
LSAH	≤ 0.25
YKQL	≤ 0.25
ELWR	≤ 0.25
MCIS	≤ 0.25
WISM	≤ 0.25
FTIK	≤ 0.25
ADCW	≤ 0.25
APPP	≤ 0.25
DKKF	≤ 0.25
QVSE	≤ 0.25
RIAD	≤ 0.25
DHAL	≤ 0.25
WVAI	≤ 0.25
RPRG	≤ 0.25
QQLT	≤ 0.25
LQSM	≤ 0.25
FRCA	≤ 0.25
